# Measurements reported in PubChem BioAssay AID504466 (National Center for Advancing Translational Sciences (NCATS), 2011).
# Out of some 330,000 compounds screened, about 4,200 (1.3%) were called active. The inconclusive results got no clear call from the source; some entries with a clear call stand among them for comparison. The call rests on the fitted dose curve; in most records, active means well fitted activation curve with a large enough effect; inconclusive means small, poorly fitted or top-dose-only effect; inactive means no such curve, though single readings can be large or run the other way. Potencies of inconclusive entries are doubtful fits and often do not repeat.
# Assay: qHTS screen for small molecules that induce genotoxicity in human embryonic kidney (HEK293T) cells expressing luciferase-tagged ELG1; further: nearly all actives have a fitted effect of over 60% in size
# Details: HEK293T ELG1-luciferase reporter, luminescence, 16 h; series mostly up to 46 µM
# Outline: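 DMSO vehicle served as control against compound-treated ELG1-luciferase HEK293T cells; exposure lasted 16 hr at 37 °C and 5% CO2, followed by ONE-Glo luminescence detection after 30 min.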
# Potency means the concentration at half of the fitted maximal effect; tags describe the fitted curve by direction and shape.
row,Structure (SMILES),Potency
1,O=C(Nc1cccc(Cl)c1)c1ccccc1,active: 16.4 µM
2,O=C(Nc1ccc(OCC(=O)N2CCOCC2)cc1)c1ccccc1Cl,"inconclusive: 18.3 µM [activator, partial curve]"
3,O=C1CN2C(=N1)N(Cc1ccccc1)c1ccccc12,"inconclusive: 23.1 µM [activator, partial curve, poor fit]"
4,Cc1cccc(-c2nc(CNC(=O)c3ccco3)cs2)c1,"inconclusive: 18.3 µM [activator, partial curve, poor fit]"
5,Cc1c(NS(=O)(=O)c2cccc(C(=O)OCC(=O)N(C)C3CCCCC3)c2)c(=O)n(-c2ccccc2)n1C,inactive
6,C/C(=C\C(=O)c1ccccc1)Nc1cccc(O)c1,"inconclusive: 4.61 µM [activator, full curve, poor fit]"
7,Cc1ccccc1NC(=O)Cc1nc(COC(=O)c2ccc(O)cc2O)cs1,inactive
8,Cc1cc(N/N=C/c2ccncc2)nc2ccccc12,"inconclusive: 18.3 µM [activator, partial curve, poor fit]"
9,COc1ccc(NC(=O)COC(=O)c2c3c(nc4ccccc24)CCCC3)cc1Cl,inactive
10,Nc1ccc(Nc2nc(-c3cc4ccccc4oc3=O)cs2)cc1,"inconclusive: 3.66 µM [activator, single point]"
11,COc1ccc(COC(=O)c2n[nH]c3ccccc23)cc1F,active: 14.6 µM
12,Cc1cc(NC(=O)c2ccc3c(c2)OCO3)ccc1NC(=O)c1ccccc1,"inconclusive: 20.6 µM [activator, partial curve, poor fit]"
13,O=c1c2cc(-c3ccccc3)sc2nc2n1CCC2,active: 1.16 µM
14,N#CCC(=O)Nc1ccc(C(=O)OCC(=O)Nc2cccc(C(F)(F)F)c2)cc1,inactive
15,C/C(=N\NC(=O)c1cccc(O)c1)c1ccc(NC(=O)Cc2ccccc2)cc1,"inconclusive: 9.2 µM [activator, partial curve, poor fit]"
16,COC(=O)c1c(C)[nH]c(C(=O)CSc2ccc(Cl)cc2)c1C,"inconclusive: 9.2 µM [activator, partial curve]"
17,COc1ccc(CCCC(=O)Nc2ccccc2F)cc1,"inconclusive: 13 µM [activator, partial curve, poor fit]"
18,COc1ccc(C2CC(=O)N(C)c3ccccc3S2)cc1OC (configuration not stated),active: 18.3 µM
19,O=C(NC(=O)c1ccccc1)C1=C(N2CCCC2)COC1=O,"inconclusive: 9.2 µM [activator, partial curve]"
20,COc1ccc(-c2cc(-c3cccs3)c(C#N)c(SCC(=O)NCc3ccccc3)n2)cc1,"inconclusive: 23.1 µM [activator, partial curve, poor fit]"
21,Cn1c(=O)c2ccccc2n(CC(=O)NCCC2=CCCCC2)c1=O,inactive
22,CC(C)c1ccc(OCc2ccc(C(=O)N(C)C)o2)cc1,active: 10.3 µM
23,O=C(CSc1cnc2ccccc2n1)c1ccc(F)cc1,"inconclusive: 2.06 µM [activator, partial curve]"
24,COc1ccc(Nc2nc(N)nc(SCc3nnc(C)s3)n2)cc1,"inconclusive: 20.6 µM [activator, partial curve]"

row,Structure (SMILES),Potency
1,CCSc1cc(C)nc2c(-c3ccccc3)cnn12,active: 9.2 µM
2,Oc1cccc(/C=N/Nc2cccc3cccnc23)c1,"inconclusive: 5.17 µM [activator, single point]"
3,Cc1ccc2cc(NC(=O)c3ccccc3C)ccc2n1,"inconclusive: 10.3 µM [activator, partial curve]"
4,COC(=O)[C@H](C)NC(=O)Nc1cc(Cl)ccc1C,"inconclusive: 15.8 µM [activator, single point]"
5,C=CCSc1nc(C)cc2c1C(=O)OC2,"inconclusive: 13 µM [activator, single point]"
6,CCOc1cc(/C=C2\C(=N)N3N=C(S(=O)(=O)CC)SC3=NC2=O)ccc1OC(=O)c1ccco1,inactive
7,COc1ccc(/C=C2\CCn3c2nc2ccccc2c3=O)cc1OC,"inconclusive: 2.31 µM [activator, partial curve, poor fit]"
8,Cc1ccc2nc(NC(=O)c3ccccc3F)sc2c1,active: 0.651 µM
9,COCCn1c(SCC(=O)Nc2ccc(OC)cc2)nc2c(oc3ccccc32)c1=O,"inconclusive: 29.1 µM [activator, single point]"
10,Cc1ccc(NC(=O)c2ccc(=O)[nH]n2)cc1C,"inconclusive: 10.3 µM [activator, partial curve, poor fit]"
11,O=C(O/N=C1\CCCc2ccccc21)c1ccc(F)cc1,"inconclusive: 18.4 µM [activator, partial curve, poor fit]"
12,FC(F)(F)c1nc2nncn2c2c1CCCCC2,"inconclusive: 20.6 µM [activator, partial curve]"
13,COc1cc2[nH]c(Cl)c([N+](=O)[O-])c2cc1OC,"inconclusive: 23.1 µM [activator, partial curve, poor fit]"
14,C1=C(CCNc2ncnc3nc[nH]c23)CCCC1,"inconclusive: 29.1 µM [activator, partial curve, poor fit]"
15,CC(C)C(=O)Nc1ccc(NC(=O)c2ccccc2Cl)nc1,active: 16.4 µM
16,Cc1cccc(S(=O)(=O)Nc2ccc(-n3c(C)nc4ccccc4c3=O)cc2)c1,inactive
17,CCOc1cc(Br)cc(/C=N/NC(=O)c2cccnc2)c1O,"inconclusive: 20.6 µM [activator, partial curve, poor fit]"
18,COc1ccc(C2=C(c3ccc(OC)c(OC)c3)CN3CCCCC3C2)cc1 (configuration not stated),inactive
19,C(=N\Nc1nc2ccccc2[nH]1)/c1ccncc1,"inconclusive: 8.2 µM [activator, partial curve]"
20,Fc1ccc2cnc(-c3ccccc3)cc2c1,"inconclusive: 9.2 µM [activator, partial curve]"
21,COC(=O)c1ccc(SCC(=O)N2CCC(C)CC2)c([N+](=O)[O-])c1,inactive
22,CCOC(=O)C1=C(c2ccccc2)OC(N)=C(C#N)C1c1ccncc1 (configuration not stated),inactive
23,CCOc1ncccc1-c1nc(-c2cccs2)no1,inactive
